The supplement of paper PMC3724861
Some of the results follow.

Test system: T1, Caupolican (Caup) homeodomain DNA-binding domain
T1 sequence: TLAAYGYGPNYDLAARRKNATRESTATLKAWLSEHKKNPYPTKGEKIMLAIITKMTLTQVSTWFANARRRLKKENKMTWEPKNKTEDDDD
Test: PBM E-score (8-mer, recovered from the published 9-mer minima) (E-score (dimensionless, -0.5 to 0.5)); Drosophila protein; higher = stronger relative binding preference, active = 0.31 or more
In short: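 An enrichment score, with higher meaning stronger, expresses relative binding preference for each short DNA word. The protein used was Caup's homeodomain DNA-binding domain (residues 214-303), produced by in vitro transcription and translation and tested at 100 nM on custom-designed protein binding microarrays. The 8-mer values were recovered from published 9-mer scores, each equal to the lower of its two constituent 8-mer scores.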

Sequence | PBM E-score
GTGGCTAA | inactive: -0.0321
TTGACAAA | inactive: 0.181
AAAGGGGG | inactive: -0.202
CCAACAGG | inactive: -0.0339
CTATATAC | inactive: 0.214
CCCGTTCA | inactive: -0.168
CTGTGAAG | inactive: -0.0616
CCTGTTAC | inactive: 0.254
CGAACAGC | inactive: 0.0486
CCCTGTGA | inactive: -0.0613
CGATCTAC | inactive: 0.0208
GTTGCTAA | inactive: 0.115
AATCAAAC | inactive: 0.199
GGTTCATA | inactive: 0.0948
CCCCCCGG | inactive: -0.377
AGGCATCC | inactive: -0.0572
ATAACACG | active: ≥ 0.334
ATTTCCCA | ≥ 0.0591
GGAAGTTA | inactive: 0.0728
ACTACAAT | inactive: 0.19
GGCGCGCC | inactive: -0.246
CTAGCCGC | inactive: -0.223
CCACTTAC | inactive: 0.062
AGAGATCC | inactive: -0.0181
AAGGCTAT | inactive: -0.0925

Sequence | PBM E-score
CCCGAAAG | inactive: -0.112
CATGTGGC | inactive: 0.0747
AGGCAGAA | inactive: -0.0172
AGATCACA | inactive: 0.134
ACGATGGG | inactive: -0.0434
CTATAACA | inactive: 0.257
AGATTCCC | inactive: -0.109
CCCCTCCA | inactive: -0.184
ACATGAAT | active: 0.336
CGCTCTCC | inactive: -0.179
AACTGCTC | inactive: -0.0403
CCTGGGGC | inactive: -0.352
CATCTGCC | inactive: -0.082
GCCCTCAC | inactive: -0.175
CTCCGCAC | inactive: -0.157
CATTTCAC | inactive: 0.0231
TAATCAGA | inactive: 0.129
CCATTATC | inactive: 0.0795
CCAGTCCG | inactive: -0.149
GGGTTACC | inactive: -0.093
GTTGGCTA | inactive: -0.089
ACGCGCCC | inactive: -0.159
AACAGATC | inactive: 0.172
GTCTTAGA | inactive: 0.00318
CGTGCAAC | inactive: 0.079

Sequence | PBM E-score
GCTGCTAA | inactive: -0.0431
AATACAGG | inactive: 0.17
ATAGCCTA | ≥ 0.029
ATAACGGA | inactive: 0.129
AGGCTTAT | inactive: -0.0948
GATGGTAC | inactive: 0.138
ACAACCCC | inactive: 0.115
ATCAGATC | inactive: 0.0435
CAATTGTA | inactive: 0.193
AGCACACT | inactive: 0.0205
AAGCGGTC | inactive: -0.127
ATCCAGTC | inactive: -0.00608
GCGGTACA | inactive: 0.173
ACGTTCAG | inactive: -0.0385
AACGAGTA | inactive: 0.122
CGTGGATA | inactive: 0.0269
ATCAAACC | inactive: 0.0467
GCATAGCC | inactive: -0.0916
AGACTACC | inactive: 0.0412
GGTTAATA | inactive: 0.0577
CAGCTGGG | inactive: -0.0926
CTGCCGTC | inactive: -0.128
GAAATCCA | inactive: 0.0118
CTTCGCTC | inactive: -0.146
ATAGACCG | inactive: -0.0331

Sequence | PBM E-score
GACTTTTA | inactive: 0.0139
CTGTTGCC | inactive: -0.0424
AAGTGATT | inactive: 0.112
ATTCCTCC | inactive: -0.0176
CTAACGAA | inactive: -0.161
CTGTTCGA | inactive: 0.126
GGGTGAAC | inactive: -0.0277
ATAGCCCG | inactive: -0.155
GTGTTTAA | inactive: 0.262
ACGATTAG | inactive: 0.124
GCAAAAGA | inactive: -0.129
ATACGCGG | inactive: -0.0948
AGGGACTG | inactive: -0.111
AGCGCGCC | inactive: -0.311
ATGAGCAA | inactive: 0.127
AAGACGAT | inactive: 0.0898
GCGTACTA | inactive: 0.114
CGAAGTGA | inactive: 0.0167
ACAAGTGA | inactive: 0.302
CACTAACC | inactive: 0.0258
GACACCCC | inactive: -0.0671
AGGACAGC | inactive: 0.0177
GCATAGAC | inactive: 0.0136
AGAAACAT | inactive: 0.285
ACGTTCGG | inactive: -0.177

Sequence | PBM E-score
GCACGAGC | inactive: -0.154
AGTCTACC | inactive: -0.0715
ACTGTTAG | inactive: -0.0526
GCTCCGCC | inactive: -0.368
AGGGACCA | ≥ -0.0946
CCGGTCAC | inactive: -0.0687
AGAAACTC | inactive: -0.014
CTCAACTC | inactive: -0.0748
ACCGCGTA | inactive: -0.0231
ATACAGGA | inactive: 0.13
GCTACTCA | inactive: 0.0547
AACGATCT | inactive: -0.00898
ACCATCGG | inactive: -0.0896
AGCGCACT | inactive: -0.125
CCAACGGA | inactive: -0.128
CTGGTGGA | inactive: -0.052
GGCGCCCA | inactive: -0.232
CCGTAAAG | inactive: -0.108
AAATCATG | inactive: 0.253
GAAAATAC | inactive: 0.0139
CCTTGTGC | inactive: 0.0734
CGCCGAGC | inactive: -0.214
GAGGTTAC | inactive: 0.0294
TGCCCCAA | ≥ -0.0515
CGTAGACA | inactive: 0.122

Sequence | PBM E-score
ATTCAGCA | ≥ 0.0918
CTTTTCAA | inactive: 0.00741
CAAAGAGC | inactive: -0.0981
GGAGCCCC | inactive: -0.353
CGGGGTTC | inactive: -0.236
CAAATACG | inactive: 0.0614
AACGAATG | inactive: 0.00089
CAGTATAC | inactive: 0.0966
AAAGGGAA | inactive: -0.0223
CTAAATGC | inactive: -0.0311
GGGGGAAA | inactive: -0.24
ATTAGAAG | inactive: 0.0339
CAACAGAA | inactive: 0.14
CAGGCCAG | inactive: -0.0761
CCAGGAGG | inactive: -0.118
CAGACAAG | inactive: 0.21
GATGGTTA | inactive: 0.0754
AAATCGAA | inactive: 0.0984
ATCCGAGG | inactive: -0.0206
AGGTTGCA | ≥ 0.0564
CCAAAATA | inactive: -0.0076
ATGCGAAG | inactive: -0.00808
CATGTCAC | active: 0.446
ATACTGAG | inactive: 0.0973
TCCCCCGA | inactive: -0.215

Sequence | PBM E-score
AAAGGTAC | inactive: 0.12
AATCGATG | inactive: 0.168
GCAAGTCC | inactive: -0.0418
ATTACCAA | inactive: 0.0838
CCGCTACA | inactive: 0.0971
AACATGCC | inactive: 0.302
GGTACCCA | inactive: -0.0718
AAGGGCCG | inactive: -0.143
AGACCATA | inactive: 0.0423
CTTAGTGA | inactive: 0.0224
ATGACTCC | inactive: 0.0128
CGAGCCGA | inactive: -0.0434
CTCGGGCA | inactive: -0.102
AGTCACCG | inactive: -0.0849
CAAGAAAA | inactive: 0.0892
CAATGGAG | inactive: -0.0643
TACCCGCA | ≥ 0.0197
AGAAAGCC | inactive: -0.132
CGTTCTAC | inactive: 0.0361
CTCTCCTC | inactive: -0.078
ACCCGCGG | inactive: -0.108
AGCCTCGA | inactive: -0.0145
GCTTACAA | inactive: 0.22
AAAGGGAT | inactive: 0.0307
CCCTGAAG | inactive: -0.207

Sequence | PBM E-score
GACTTGAA | inactive: -0.0234
TAATGTAA | active: 0.315
AGCAGCCA | inactive: -0.0182
AGAAACCC | inactive: -0.0509
ATGTACCA | active: 0.36
GCCAGCCA | inactive: -0.264
CCCTGGGA | inactive: -0.259
CAACTACA | inactive: 0.287
GATCGATC | inactive: 0.00221
CACTCGAG | inactive: -0.0613
GATGTGAC | inactive: 0.0986
CCTCCTCC | inactive: -0.149
CCTGGAGA | inactive: -0.174
GACATGGA | active: 0.345
CGGTGGAC | inactive: -0.0807
AGTTTTGG | inactive: -0.0105
AGCTCAGG | inactive: -0.116
CCCCATAC | inactive: -0.19
CCTTGTAC | active: 0.399
CGCTGATC | inactive: -0.0501
AAATCCGA | inactive: 0.0288
CGTGGTAG | inactive: -0.022
GTGACCTA | inactive: 0.0131
ACGCAGCT | inactive: -0.0676
AGCAATTG | inactive: 0.0475

Sequence | PBM E-score
GCGGTCTA | inactive: -0.0746
CCAAGGTC | inactive: -0.0905
AGCGTATA | inactive: 0.0189
AAGCCGGC | inactive: -0.175
ATATACTC | inactive: 0.0689
CACTATAA | inactive: 0.118
CATCCAGG | inactive: -0.0977
GGAACCAC | inactive: -0.00107
AATACTAA | inactive: 0.0875
CCAAGAAA | inactive: 0.0351
TGCACGCA | inactive: -0.0359
CATGCGTA | inactive: 0.11
AGGGCATC | inactive: -0.158
AACGTTCA | inactive: 0.0202
ATCAAAAT | inactive: 0.131
GGTAGGAA | inactive: -0.0475
TAACCGAA | inactive: 0.00092
CGCTTAAG | inactive: -0.0985
ACGGACTA | inactive: 0.043
AAACAGAC | inactive: 0.158
GGTGAATA | inactive: -0.0398
CCGTCGCC | inactive: -0.246
AAACCCAC | inactive: -0.0514
